From article PMC6919601, “Identification of Plasmodium dipeptidyl aminopeptidase allosteric inhibitors by high throughput screening” (PLoS ONE, 2019)
Among all 110,000 compounds or so, about 230 (0.21%) showed an effect of 50% or more. Some of the results follow.

target: DPAP1 (Plasmodium falciparum, UniProt Q8IIJ9); assay: primary screen, percent inhibition; read by cleavage of a fluorogenic dipeptide substrate; higher = more effect of the substance; design: species or system P. falciparum D10 trophozoite lysates; single well
Sequence (Q8IIJ9 whole entry, looked up): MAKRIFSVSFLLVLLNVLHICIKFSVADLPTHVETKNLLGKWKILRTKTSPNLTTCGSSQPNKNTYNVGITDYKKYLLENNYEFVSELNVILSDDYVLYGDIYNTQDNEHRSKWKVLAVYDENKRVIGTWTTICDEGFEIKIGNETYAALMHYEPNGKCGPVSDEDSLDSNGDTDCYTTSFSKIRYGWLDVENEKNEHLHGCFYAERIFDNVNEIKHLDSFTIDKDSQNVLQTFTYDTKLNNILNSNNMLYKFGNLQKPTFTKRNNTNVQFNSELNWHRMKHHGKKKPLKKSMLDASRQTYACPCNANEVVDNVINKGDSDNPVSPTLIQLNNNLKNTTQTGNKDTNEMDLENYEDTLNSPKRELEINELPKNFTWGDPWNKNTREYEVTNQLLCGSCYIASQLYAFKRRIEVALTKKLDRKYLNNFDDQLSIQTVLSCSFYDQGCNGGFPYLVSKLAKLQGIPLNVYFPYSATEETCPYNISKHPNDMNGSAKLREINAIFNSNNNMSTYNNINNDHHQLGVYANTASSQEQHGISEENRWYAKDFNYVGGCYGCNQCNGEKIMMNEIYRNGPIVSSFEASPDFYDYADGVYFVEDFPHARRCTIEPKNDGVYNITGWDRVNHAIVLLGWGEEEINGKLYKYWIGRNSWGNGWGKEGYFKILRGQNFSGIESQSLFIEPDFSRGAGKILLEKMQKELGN
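Note: 30 min substrate incubation versus DMSO and 10 µM JCP410 controls.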

SMILES | % Inhibition @ 10 uM [%]
COc1cccc(C(=O)Nc2sc3c(c2C#N)CCCC3)c1 | -1.06
COc1ccc(C)cc1NC(=O)c1ccc(OC(F)F)cc1 | -3.71
CC(C)(C)c1ccc(-c2nnc(SCC(=O)O)n2-c2ccccc2)cc1 | 4.42
CCOCCn1cnc2sc(C(=O)NCCCN(CC)CC)c(C)c2c1=O | -3.93
Cc1ccc(NC(=O)CN(CCc2ccccc2)S(C)(=O)=O)c(C)c1 | 3.04
O=C(Cn1cccc1C(=O)c1ccccc1)NCCc1ccc(Cl)cc1 | -0.522
CN1CCN(c2ccc3nnc(CCC(=O)NCCc4c[nH]c5ccccc45)n3n2)CC1 | -0.264
COc1ccccc1-c1cc(-c2ccccc2)nc(N)c1C#N | 1.26
O=C(/C=C/c1ccc(-c2ccc(Cl)cc2)o1)c1ccco1 | 3.34
COc1ccc(N2C(=O)CC(N3CCN(c4ccccc4F)CC3)C2=O)c(OC)c1 (stereo not drawn) | -2.98
COc1ccc(C2=C/C(=C/c3ccccc3Cl)C(=O)O2)cc1 | 3.16
Cc1nn(CCC(=O)NCc2ccc3c(c2)OCO3)c(=O)c2nn(-c3ccccc3)c(C)c12 | -6.73
COc1ccc(NC(=O)CN(c2ccc(Cl)cc2)S(C)(=O)=O)c(OC)c1 | -0.297
CC(C)CNS(=O)(=O)c1ccc(OCC(=O)N2CCc3ccccc3C2)cc1 | -0.0619
O=C(C1CCCN(c2ncnc3c2nc2n3CCCCC2)C1)N1CCN(c2ccccn2)CC1 (stereo not drawn) | -0.238
COc1cc(CNc2cccc(C(F)(F)F)c2)ccc1OCC(=O)NC(C)(C)C | 1.92
O=C(NCc1ccccc1Cl)c1c(O)nc2ccccc2c1O | 5.85
CCc1nnc(OCC(=O)NCc2cccc(OC)c2)c2cc3cc(F)ccc3n12 | 1.63
OCCN(Cc1ccccc1)Cc1cccc(Cl)c1 | 4.28
CCOC(=O)N1CCC(NC(=O)c2cnn3c(C)c(Cc4ccccc4Cl)c(C)nc23)CC1 | -3.94
O=C1NC(=O)N(c2cccc(Cl)c2)C(=O)/C1=C\Nc1ccccc1O | 0.792

SMILES | % Inhibition @ 10 uM [%]
O=C(NC1CCS(=O)(=O)C1)c1sc2ccccc2c1Cl (stereo not drawn) | -4.75
Cc1nc2ccccc2n1Cc1ccc(C(C)(C)C)cc1 | -3.35
CCOc1ccccc1CN1CCN(c2ccc(C(C)=O)cc2)CC1 | -0.849
Cc1[nH]c2ccccc2c1/C=C1/C(=N)N2C(=NC1=O)SN=C2S(=O)(=O)C(C)C | -1.58
Cc1nnc(N2CCCCC2)c2ccccc12 | -2.97
Fc1ccc(-n2nnc(-c3ccccc3Br)n2)cc1 | -3.49
CCOc1ccc2nc(SCC(=O)Nc3ccc(C#N)cc3)sc2c1 | 0.121
CC(C)(C)c1ccc(-c2nc(NC(=O)CSc3nnc4ccccn34)ns2)cc1 | -4.78
O=C(NCc1ccccn1)c1sc2ccccc2c1Cl | -5.68
COc1cccc(CNCc2c(C(=O)O)n(Cc3ccccc3)c3cc(C)ccc23)c1OC | -0.118
CCCCCn1c(=O)c(C(=O)Nc2ccccc2C(N)=O)c(O)c2ccccc21 | -4.23
CCOC(=O)N1CCN(C(=O)c2ccc(Br)cc2)CC1 | 3.72
COc1ccc(C)cc1-n1nnc(-c2nc(-c3ccccc3)no2)c1N | -4.46
O=C(Nc1ccccc1O)c1ccc(C(=O)Nc2ccccc2O)cc1 | 4.8
O=C(CN1CCN(c2ccccc2)CC1)Nc1cc(Cl)ccc1Cl | -2.03
O=c1c(Cl)c(N2CCC3(CC2)OCCO3)cnn1C12CC3CC(CC(C3)C1)C2 | -5.27
CC1=C(C)CC(C(=O)NCc2ccc3c(c2)OCO3)C(C(=O)O)C1 (stereo not drawn) | -3.46
O=C(C1CCC(CNS(=O)(=O)c2cccc3cccnc23)CC1)N1CCCCCC1 (stereo not drawn) | -0.692
COc1ccc(C)cc1N(CC(=O)N(C)Cc1ccccc1)S(=O)(=O)c1ccccc1 | 4.56
CC1=C(C(=O)Nc2ccc(F)cc2)C(c2ccco2)C(C#N)=C(SCC(N)=O)N1 (stereo not drawn) | -4.68
O=C1c2ccccc2C(=O)C1(Nc1cccc([N+](=O)[O-])c1)c1ccccc1 | 4.82

SMILES | % Inhibition @ 10 uM [%]
CCOc1ccc(C2Nc3ccccc3N=C3CC(C)(C)CC(O)=C32)cc1 (stereo not drawn) | -1.85
Cc1nn2c(N)c(C#N)cnc2c1-c1ccccc1 | 3.19
CC1CCc2nn(CC(=O)NCCCN(Cc3ccccc3)C(C)C)cc2C1 (stereo not drawn) | 1.8
CC(=O)c1ccc(NC(=O)c2cccc(Cl)c2)cc1 | -0.771
CCCCc1c(C(=O)O)cc(C)cc1C(=O)O | 3.16
Cc1cc2c(c(SCC(=O)O)n1)C(=O)OC2 | 2.57
Cc1ccc(S(=O)(=O)Cc2csc(N)n2)cc1 | 0.708
COc1ccc(NC(=O)CN2C(=O)S/C(=C/c3cc(C)n(-c4cccnc4)c3C)C2=O)cc1 | 17.9
O=C(O)CC(NC(=O)C(F)(F)F)c1ccccc1 (stereo not drawn) | -1.42
Cc1ccccc1Cn1cc(NC(=O)c2cc(-c3ccc4c(c3)OCO4)on2)cn1 | -1.84
Cc1cc(=O)oc2c(C)c(O)c(C(=O)c3ccccc3)cc12 | -4.62
CSc1cccc(NC(=O)CN(C)S(=O)(=O)c2c(C)cc(C)cc2C)c1 | 4.09
COc1ccc(CC(=O)Nc2cccc(F)c2)cc1 | -7.5
Cc1cccc2nc(Cl)cc(Cl)c12 | -2.4
Cc1nc(-c2ccc(NS(=O)(=O)c3ccc(C)c(C)c3)cc2)cs1 | -4.68
O=C(COCc1cc(-c2cccs2)on1)Nc1c2ccccc2nc2ccccc12 | -4.38
CCc1cc(C)nc2cc(-c3ccccc3)nn12 | 0.727
COc1ccc(-n2cccc2/C=C2\SC(=O)N(CC(=O)O)C2=O)cc1 | 5.75
Cc1ccccc1OCC(=O)NCCC1=CCCCC1 | -4.02
CCOc1ccc(C(=O)C2=C(O)C(=O)N(Cc3cccnc3)C2c2ccc(O)c(OC)c2)cc1 (stereo not drawn) | -1.25
CC(C)(C)c1ccc(Oc2nc3ccccn3c(=O)c2/C=C(\C#N)C(=O)NC2CCCCC2)cc1 | 2.16
